The campaign covered roughly 46,000 compounds. About 60 (0.1%) were called active. About 3% were inconclusive and are not listed. Calls follow the shape of the dose curve; as a rule, active = well fitted inhibition curve with a large enough effect; inconclusive = small, poorly fitted or top-dose-only effect; inactive = no such curve, though single readings can be large or run the other way. This is one part of the list.
assay: Primary qHTS assay for Inhibitors of ovarian cancer metastasis using an organotypic tumor microenvironment (TME) model.; also: nearly all actives have a fitted effect of over 65% in size;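 as to activity change, negative = inhibition: plate controls were DMSO wells for no effect and tomatine positive control wells for full effect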; conditions: SKOV3ip1-GFP adhesion/invasion on 3D omental model, fluorescence; series mostly up to 45.8 µM; activity change, negative = inhibition: at the top concentration
Procedure, shortened: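 qHTS, 4-pt dose (0.36-46 umol/L); SKOV3ip1-GFP, 1,200 cells/well, no FBS; primary omental fibroblast/mesothelial co-culture 48 h pre-grown; 2 h RT + 16 h 37 C; PBS wash, 4% PFA; GFP count 488/509 nm.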

Activity change, negative = inhibition, inactive:
COc1ccc(-c2cc(C(C)=O)c(C)n2CCC(=O)NCc2ccc(F)cc2)cc1 5.33%
Cc1cccc(-n2ncc(C(=O)N3CCC(C)CC3)c2C2CCN(C(=O)OC(C)(C)C)CC2)c1 -3.68%
COc1cc(C2CC(=O)Nc3c2c(=O)n(C)c(=O)n3C)cc(OC)c1OC (centres undefined) -11.6%
CC(=O)c1cccc(NS(=O)(=O)c2c(C)nc3sc(C)cn3c2=O)c1 2.79%
CCOC(=O)c1c(S(=O)(=O)NCC(=O)N2CCN(c3ccccc3OC)CC2)c(C)n(C)c1C -8.99%
COc1ccc(CCNC(=O)NCc2noc3ccc(C)cc23)c(OC)c1 2.85%
COc1ccc(S(=O)(=O)N(CC(=O)N2CCC(C)CC2)c2ccc(C)cc2)cc1 -5.65%
CCCCNC(=O)C(CC)Sc1nnc(-c2ccc(OC)c(OC)c2)c(-c2ccc(OC)c(OC)c2)n1 (centres undefined) -55.4%
Cc1ccc(-c2ccc(=O)n(C(C)C(=O)Nc3ccccc3Cl)n2)cc1C (centres undefined) 1.84%
CCn1cc(C(=O)O)c(=O)c2cc(F)c(N3CCN(C)CC3)cc21 -7.73%
CC1CCc2nc3ncn(CC(=O)Nc4cccc(C#N)c4)c(=O)c3cc2C1 (centres undefined) -10.8%
Cc1cc(C)c(/C=C/c2onc(C)c2S(=O)(=O)N2CCC(C(=O)N3CCN(c4ccccc4)CC3)CC2)c(C)c1 -0.224%
CCOC(=O)c1sc2ncn(CC(=O)Nc3ccc(C)cc3C)c(=O)c2c1C -9.89%
Cc1cc(N2CCC(C)CC2)nc2ccc(NC(=O)CCC(=O)N3CCN(c4cccc(C(F)(F)F)c4)CC3)cc12 -6.76%
CCc1ccccc1Nc1nn2c(=O)c3ccc(C(=O)Nc4cc(C)cc(C)c4)cc3nc2s1 0.597%
COc1ccc(C(=O)NCC(c2cccs2)S(=O)(=O)c2ccc(C)cc2)cc1 (centres undefined) -1.15%
CCOc1ccccc1NC(=O)C(C)Sc1nc2c(c(=O)[nH]1)CCCC2 (centres undefined) -0.144%
CCc1cccc(CC)c1NC1=NS(=O)(=O)c2ccccc21 2.93%
Cc1ccc(CC(=O)Nc2c(C(=O)N3CCN(c4ccccc4F)CC3)oc3ccccc23)cc1 -3.89%
Cc1cc(F)ccc1NC(=O)c1sc2nc(-c3cccs3)ccc2c1N -22.8%
Cc1nn(C)c2c1c(C(F)(F)F)cc(=O)n2CC(=O)NCc1ccccc1Cl 6.25%
CCOC(=O)C1=C(CN2CCC(C(=O)OCC)CC2)NC(=O)NC1c1ccc(Cl)cc1 (centres undefined) -2.46%
Cc1oc(-c2ccccc2)nc1CNC(=O)Nc1ccccc1 -2.59%
CN1C(C(=O)Nc2ccc(F)cc2F)=CC(c2cccs2)=NS1(=O)=O 1.65%
Cc1ccc2c(=O)cc(C(=O)Nc3nnc(C)s3)oc2c1 -7.28%
COc1ccc(-c2cc(C(=O)Nc3c(C)nn(Cc4ccc(F)cc4)c3C)no2)cc1OC 3.92%
CCOC(=O)c1ccccc1NC(=O)CCc1c(C)nc2ncnn2c1C -15.4%
CCOCCCNC(=O)CCc1nnc2ccc(N3CCN(c4cccc(OC)c4)CC3)nn12 9.08%
Cc1ccc(NCc2nnc3n2CCCCC3)cc1Cl 2.75%
Cc1ccc(CN(C(=O)COc2ccc(C)c(C)c2)C2CCS(=O)(=O)C2)o1 (centres undefined) 1.46%
CC(C)N(C(=O)Cn1cc(S(=O)(=O)Cc2ccc(C(F)(F)F)cc2)c2ccccc21)C(C)C 8.84%
Cc1ccc(Nc2c(-c3ccccc3O)nc3ccc(Br)cn23)cc1 8.08%
CCOc1ccc(S(=O)(=O)N2CCN(c3ccccc3)CC2)cc1C(N)=O -7.01%
COc1ccc(OCc2nnc(-c3ccccc3)o2)cc1 -2.3%
COc1ccc(S(=O)(=O)Nc2cc(-c3cn4ccccc4n3)ccc2C)cc1 2.09%
O=C(CC1NCCNC1=O)Nc1cccc(F)c1 (centres undefined) 2.6%
CCOC(=O)c1ccc(NC(=O)C2CCCN(c3ncnc4onc(C)c34)C2)cc1 (centres undefined) 5.93%
Cc1nc2ccc(S(=O)(=O)CCC(=O)Nc3ccccc3C)cc2s1 -5.75%
COc1cccc(C2C(C(=O)Nc3cccnc3)=C(C)Nc3nc(SCc4ccccc4)nn32)c1 (centres undefined) 5.21%
Cc1ccc(NC(=O)Cn2c(=O)oc3cc(S(=O)(=O)N4CCCC4)ccc32)cc1F -1.31%
COc1ccc(CCNc2oc(COc3ccc(Cl)cc3)nc2C#N)cc1OC -4.03%
CCc1ccc2nc(N3CCN(C(=O)c4ccco4)CC3)sc2c1 -1.79%
COc1ccc(Nc2nnc(-c3ccc(C)c(S(N)(=O)=O)c3)c3ccccc23)cc1 -17.3%
CC(=O)c1cccc(NC(=O)C2=CC(c3ccco3)=NS(=O)(=O)N2C)c1 3.49%
CCc1ccc(CNc2nc3nc(C)c(Cc4ccccc4)c(=O)n3[nH]2)cc1 0.396%
CCc1ccc(CN2CCc3nc(Nc4ccc5c(c4)OCCO5)ncc3C2)cc1 -2.68%
COc1ccccc1CNC(=O)C(=O)NCC(c1ccc2c(c1)OCO2)N1CCOCC1 (centres undefined) -1.29%
Cc1cccc(S(=O)(=O)c2cn(Cc3ccccc3)c3cc(N4CCCC(C)C4)c(F)cc3c2=O)c1 (centres undefined) -12.6%
Cc1cccc2sc(N3CCN(C(=O)c4ccco4)CC3)nc12 9.05%
CSc1nn(Cc2cccc(F)c2)c(N(C(C)=O)C(C)=O)c1S(=O)(=O)c1ccccc1 30.2%
O=C1Nc2ccccc2Oc2cc(Oc3ccc(Cl)cc3)ccc21 -24.1%
CCC(=O)N1CCc2cc(S(=O)(=O)NC(CC(C)C)C(=O)Nc3ccc(CC)cc3)ccc21 (centres undefined) 2.52%
COc1ccc(OC)c(CNCc2c(C(=O)O)n(Cc3ccccc3)c3cc(OC)ccc23)c1 -1.68%
Clc1ccc(CSc2nc(NCCc3ccccc3)c3ccccc3n2)cc1 16.5%
CCOc1ccccc1CNC(=O)CCCN1C(=O)CCn2nc(-c3cccn3C)cc21 -3.14%
Cc1ccc(-c2cc(C(F)(F)F)n3nc(C(=O)Nc4ccc(C#N)cc4)cc3n2)cc1 3.29%
CCOC(=O)c1c(C)[nH]c(C)c1S(=O)(=O)N1CCCC(C(=O)N2CCN(c3cc(C)ccc3C)CC2)C1 (centres undefined) -0.545%
CCc1ccc(-n2nc(C)c3c(C)cc(=O)n(CC(=O)Nc4ccc(OC)c(OC)c4)c32)cc1 2.69%
Cc1ccc(CNC(=O)C2CCN(S(=O)(=O)c3ccc4c(c3)oc(=O)n4C)CC2)cc1 4%
CCC(CC)C(=O)Nc1ccccc1C(=O)OCc1cc(=O)n2nc(C3CCCCC3)sc2n1 2.71%
COc1ccc(Cl)cc1N(C)C(=O)Cn1cnc2sc(C)c(S(=O)(=O)N3CCN(c4ncccn4)CC3)c2c1=O -4.24%
CCOc1ccc(CNC(=O)Cn2ncc3c(=O)oc4ccc(C)cc4c32)cc1 26.6%
O=S(=O)(c1cccs1)N1CCN(c2ccc(Cl)cc2)CC1 -0.713%
COc1ccc(Cl)cc1NC(=O)[C@H]1O[C@@H]2OC(C)(C)O[C@@H]2[C@H]2OC(C)(C)O[C@H]21 -0.42%
COc1ccc(C(=O)N2CCCCC2CCN2CCCCC2)cc1 (centres undefined) -13%
COC(=O)c1cc(NC(=O)CN(c2ccccc2)S(=O)(=O)N(C)C)ccc1Cl 9.8%
COc1ccc(NC(=O)Cn2cc(C(=O)C3CC3)c3ccccc32)cc1 -10.1%
CCOC(=O)N1CCN(C(=O)CN(c2ccc(C)cc2C)S(=O)(=O)c2ccccc2)CC1 0.358%

outcome, inactive:
CCCCn1c(CNC(=O)c2ccc(OC)cc2)nnc1SCC(=O)Nc1ccccc1
Cc1ccc(CNC(=O)CCC(=O)N2CC(C)Sc3ccccc32)cc1 (centres undefined)
CCOC(=O)c1cccc(NC(=O)CCCn2c(C)c3cnn(-c4ccccc4)c(=O)c3c2C)c1
CCN(CC)c1cc2c(cc1F)c(=O)c(S(=O)(=O)c1ccccc1)cn2Cc1ccccc1
COc1ccccc1-c1nn(CCC(=O)Nc2cccc(C(C)=O)c2)c2nc(C)cc(C)c12
COc1cccc(NC(=O)c2cn(C3CCCCC3)c(=O)c3c2c2ccccc2n3C)c1
COC(=O)c1ccc(Cn2c(SCc3cccc(C)c3)nc3ccncc32)cc1
O=S(=O)(Nc1ccc(-c2ccc(N3CCCC3)nn2)cc1)c1ccc(Br)cc1
Cc1ccc(NS(=O)(=O)c2ccc3c(c2)NC(=O)CCS3)c(Br)c1
CCn1nc(-c2ccccc2)c(-c2ccccc2)c(C(=O)OCCOC)c1=O
CCOc1ccc(-n2c(=O)c3c(C)c(C(=O)N(C)C)sc3n(CC(=O)Nc3c(C)cc(C)cc3C)c2=O)cc1
Cc1cccc(NC(=O)CSc2nc3c([nH]c4ccccc43)c(=O)n2C)c1
COc1ccc(NC(=O)CSC2=Nc3ccccc3C3=NC(CCC(=O)NCc4ccco4)C(=O)N23)cc1 (centres undefined)
Cc1ccc2ncc3c(-c4ccccc4)nn(CC(=O)NC4CCCCC4)c3c2c1
COc1ccccc1N1CCN(CCCNC(=O)Cn2ncc3c([nH]c4ccccc43)c2=O)CC1
CCc1ccc(-c2nc(SCC(=O)NCCOC)c(-c3ccc(C)cc3)[nH]2)cc1
CCOc1ccc(S(=O)(=O)Nc2ccc(-c3ccc(N4CCCC4)nn3)cc2)cc1
CCc1cccc(C)c1NC(=O)c1cnn(-c2ccc(F)cc2)c1-n1cccc1
O=C(CN1N=C(c2ccc(Cl)cc2)CCC1=O)NCc1ccc(F)cc1
Cc1cc(NC(=O)C2CCCN(S(=O)(=O)c3cccc4nonc34)C2)ccc1Br (centres undefined)
Cc1ccc(C)c(CN2C(=O)c3ccccc3S(=O)(=O)c3ccc(C(=O)N4CCOCC4)cc32)c1
CCOc1ccccc1NC(=O)Cn1nnc2sc3c(c2c1=O)CCC(C(C)(C)C)C3 (centres undefined)
NS(=O)(=O)c1ccc(CCNc2nc3c(-c4cccc(F)c4)nnn3c3ccc(Cl)cc23)cc1
CCN1CCN(C(=O)c2ccc3c(c2)N(Cc2cc(C)ccc2C)C(=O)c2ccccc2S3=O)CC1 (centres undefined)
O=C(CN1C(=O)C2(SCC(=O)N2c2cccc(Cl)c2)c2ccccc21)NC1CCCCC1 (centres undefined)
CCOC(=O)c1c(C)[nH]c(C)c1S(=O)(=O)N(C)CC(=O)N1CCN(c2ccccc2OC)CC1

Source: PubChem BioAssay AID1963576 (National Center for Advancing Translational Sciences (NCATS), 2024)
